# Publication PMC4336329 (PLoS ONE, 2015)
# Hit rate of the full screen: of about 310,000 compounds, about 2,200 (0.71%) showed an effect of 50% or more. Effects have a minus sign here. The list shows a part of the results.
# Molecular target: human ether-à-go-go-related gene (hERG) potassium channel (human, UniProt Q12809)
# Assay: primary screen, population patch clamp on CHO cells stably expressing hERG
# Sequence of human ether-à-go-go-related gene (hERG) potassium channel (Q12809 whole entry, looked up): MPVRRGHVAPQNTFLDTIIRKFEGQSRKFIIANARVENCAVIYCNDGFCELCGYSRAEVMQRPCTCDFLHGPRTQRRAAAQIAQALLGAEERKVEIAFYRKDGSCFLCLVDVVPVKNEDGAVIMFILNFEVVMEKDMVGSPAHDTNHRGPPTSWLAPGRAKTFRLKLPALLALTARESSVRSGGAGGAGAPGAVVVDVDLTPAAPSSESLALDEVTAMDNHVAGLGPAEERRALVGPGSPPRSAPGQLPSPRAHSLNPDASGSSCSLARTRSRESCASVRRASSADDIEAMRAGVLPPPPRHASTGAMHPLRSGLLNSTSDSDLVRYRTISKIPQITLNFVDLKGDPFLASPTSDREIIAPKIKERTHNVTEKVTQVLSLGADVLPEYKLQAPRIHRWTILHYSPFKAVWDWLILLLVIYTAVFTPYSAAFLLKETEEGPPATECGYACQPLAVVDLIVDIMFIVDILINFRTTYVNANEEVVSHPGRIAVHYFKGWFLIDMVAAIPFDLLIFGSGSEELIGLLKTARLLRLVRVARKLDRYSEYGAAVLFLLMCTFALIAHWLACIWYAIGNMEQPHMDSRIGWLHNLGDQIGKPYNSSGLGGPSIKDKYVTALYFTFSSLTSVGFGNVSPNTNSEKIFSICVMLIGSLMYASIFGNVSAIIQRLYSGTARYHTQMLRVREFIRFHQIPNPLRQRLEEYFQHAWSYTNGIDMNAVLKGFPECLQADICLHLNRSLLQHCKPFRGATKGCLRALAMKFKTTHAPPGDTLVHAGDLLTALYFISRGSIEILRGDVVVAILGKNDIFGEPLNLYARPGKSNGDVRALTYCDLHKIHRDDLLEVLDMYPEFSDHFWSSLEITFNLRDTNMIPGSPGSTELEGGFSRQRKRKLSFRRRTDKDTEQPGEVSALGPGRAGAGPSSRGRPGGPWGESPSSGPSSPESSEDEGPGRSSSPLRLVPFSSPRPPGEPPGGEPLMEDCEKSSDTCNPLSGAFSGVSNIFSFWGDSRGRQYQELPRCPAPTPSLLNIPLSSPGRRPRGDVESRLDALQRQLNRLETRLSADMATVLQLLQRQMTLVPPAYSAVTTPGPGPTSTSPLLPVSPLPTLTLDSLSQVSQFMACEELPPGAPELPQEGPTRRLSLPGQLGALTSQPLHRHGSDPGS
row,SMILES,"hERG current change (%, negative = inhibition) at 1uM [%]"
1,Cc1ccc(CN2CCN(CC(=O)NCCCN3CCN(c4ccc(F)cc4)CC3)C2=O)cc1,-56.6
2,COC(=O)c1ccccc1-n1c(CCC(=O)O)ccc1-c1ccccc1,5.16
3,Cc1ccc(N(CC(=O)N/N=C/c2cccnc2)S(=O)(=O)c2ccccc2)cc1,-9.45
4,Cc1cccc(N(Cc2cc3ccccc3[nH]c2=O)C(=O)c2ccco2)c1C,5.28
5,Cc1ccc2[nH]c(=O)c(CN(CCCN3CCOCC3)Cc3nnnn3C3CCCC3)cc2c1,-4.76
6,CC(=O)NC1=NN(C(C)=O)C(C)(CS(=O)(=O)c2ccc(Cl)cc2)S1 (stereo not shown),12.6
7,O=C(CN(Cc1ccc(Br)cc1)S(=O)(=O)c1ccccc1)NCc1cccnc1,12.2
8,Oc1ccccc1CNc1cccc2cccnc12,10.5
9,C#CCNC(=O)c1cc2sccc2n1C,0.939
10,O=C(COc1ccccc1)Nc1nc2c(s1)CCCC2,9.72
11,Cl.O=C(NCCCNCc1ccccc1)c1ccncc1,9.31
12,Cc1ccc2c(c1)NC(=O)C(CC(=O)NCCCN1CCCC1)O2 (stereo not shown),12.4
13,CS(=O)(=O)Nc1ccc(OCc2ccccc2)cc1,10.1
14,O=C(c1cc2ccccc2oc1=O)N1CCOCC1,11.1
15,O=C(NCc1cccnc1)C1CC(=O)N(CCc2ccccc2)C1 (stereo not shown),5.44
16,CCOC(=O)c1noc(C)c1C(=O)Nc1cccc(F)c1,-2.29
17,Cc1cc(/C=N/NC(=O)c2cccc([N+](=O)[O-])c2)c(C)n1-c1ccccc1,10.2
18,COc1ccc(Cl)cc1NC(=O)CN(C)C(=O)COc1ccccc1F,6.13
19,CCOC(=O)c1c(C(F)(F)C(F)(F)C(F)(F)C(F)(F)F)n[nH]c1C,7.41
20,Fc1cccc(Nc2nc3ccccc3n3cnnc23)c1,15.4
21,CC(=O)N1c2ccc(S(=O)(=O)N3CCCC(C(=O)Nc4cc(C)cc(C)c4)C3)cc2CC1C (stereo not shown),12.7
22,CCOc1ccc(CN2CCN(Cc3[nH]c4ccc(OC)cc4c3C)CC2CCO)cc1 (stereo not shown),-76.9

row,SMILES,"hERG current change (%, negative = inhibition) at 1uM [%]"
1,CCOC(=O)c1c(NC(=O)COC(=O)c2ccccn2)sc(C(=O)N(C)C)c1C,7.64
2,O=C(CN1C(=O)NC2(CCCCCC2)C1=O)NC1CC1,15.5
3,CCCCOc1ccc(CSc2n[nH]c(C)n2)cc1,3.61
4,COc1ccc(Br)cc1C(=O)Nc1cccc(C)c1C,2.14
5,COc1cc(OC)cc(C(=O)NCC(=O)OCC(=O)c2ccc3c(c2)-c2ccccc2C3)c1,4.3
6,CC(=O)NC(CCS(C)(=O)=O)C(=O)Nc1ccc(C)c(F)c1 (stereo not shown),-14.9
7,COc1ccc(OC)c(NC(=O)CN(Cc2ccc(Cl)cc2)S(C)(=O)=O)c1,2.7
8,O=C(CNC(=O)c1ccccc1Br)N/N=C/c1ccco1,14.3
9,CCOC(=O)Cn1nc(C)n(-c2ccc(Cl)cc2)c1=O,5.95
10,Cc1c(C(=O)Nc2ccc(N3CCOCC3)cc2)cccc1[N+](=O)[O-],8.25
11,N#CC1=C(N)Oc2c(c(=O)oc3ccccc23)C1c1ccncc1 (stereo not shown),1.9
12,CC(C)(C)c1ccc(C(=O)NCCC(=O)N2CCCC2)cc1,9.14
13,C#CCOC(=O)C[N+](C)(C)CC=C.[Cl-],12.1
14,Cc1cc(C(=O)CN2C(=O)NC3(CCCCC3)C2=O)c(C)n1Cc1ccco1,4.33
15,O=C(Nc1nncs1)c1cccc(S(=O)(=O)N2CCCC2)c1,7.66
16,COc1cccc(C(C(=O)NC2CCCC2)N(Cc2cccnc2)C(=O)Cc2cccs2)c1 (stereo not shown),5.68
17,CCOC(=O)c1c(NC(=O)COC(=O)c2cnc(C)cn2)sc(C(=O)N(C)C)c1C,14
18,Cc1nnc(NC(=O)c2nn(CC(C)C)c(=O)c3ccccc23)s1,22.4
19,C=CCn1c(SC(C)C(=O)NC2(C#N)CCCCC2)nnc1-c1ccc(OC)cc1 (stereo not shown),7.7
20,Brc1ccc(Nc2ncnc3[nH]ncc23)cc1,-3.27
21,CC(=O)Nc1ccc(NC(=O)CSc2ncnn2-c2ccccc2)cc1,6.61
22,O=C(C1CCCN(Cc2cccs2)C1)N1CCCCCC1.O=C(O)C(=O)O (stereo not shown),7.61

row,SMILES,"hERG current change (%, negative = inhibition) at 1uM [%]"
1,CCOC(=O)c1[nH]c2ccc(OC)cc2c1NC(=O)c1ccc2c(c1)OCO2,15
2,CCOC(=O)c1cnc2ccc(F)cc2c1Nc1ccc2c(c1)OCCO2,9.45
3,O=C(N/N=C/c1cccs1)[C@H]1C[C@@H]1c1ccccc1,3.86
4,O=C(c1ccccc1)N(C(=O)c1ccccc1)c1ncnc2c1C(c1ccccc1)c1c(ccc3ccccc13)O2 (stereo not shown),10.3
5,Cc1nc(-c2ccccc2)c(-c2ccccc2)[nH]1,-7.98
6,COc1ccc2oc(=O)c(C(=O)N3CCN(c4ccccc4F)CC3)cc2c1,-3.24
7,CC(C)CCOC(=O)C1[C@H]2C(=O)N(Cc3cccs3)C[C@]23C=C[C@H]1O3 (stereo partly shown),11.2
8,O=C(CN(C(=O)c1csnn1)c1cccc2c1CCCC2)NCc1ccc(F)cc1,-11.1
9,CCC/C=C1/CCCOC(C(=O)NCc2ccccn2)(C(F)(F)F)C1 (stereo not shown),7.3
10,O=C(O)/C=C\C(=O)Nc1ccccc1C(=O)NCc1ccccc1,15.6
11,Cc1ccc(S(=O)(=O)N2CCN(C(=O)c3ccco3)CC2)cc1C,3.3
12,CCOC(=O)c1ccc2nc(NC(=O)C(C)C)sc2c1,6.43
13,Cc1cccc(C(=O)N/C(=C\c2ccco2)C(=O)N2CCCC2)c1,3.98
14,Cc1csc(C(C)N(C)C(=O)c2ccc(OC3CCN(Cc4ccccn4)CC3)cc2)n1 (stereo not shown),9.1
15,COc1ccc(NS(=O)(=O)c2cc3c(cc2C)N(C(C)=O)CCO3)c(OC)c1,12
16,Cc1ccc(C(=O)OCC(=O)N(C)c2c(N)n(Cc3ccccc3)c(=O)[nH]c2=O)s1,8.46
17,CC1(C)CC(=O)C2=C(C1)Oc1ncn(CCCn3ccnc3)c(=N)c1C2c1ccccc1 (stereo not shown),-3.28
18,C/C(CC(=O)Nc1cc(C)cc(C)c1)=N\NC(=O)c1ccccn1,9.88
19,O=C(c1nc2ccccn2c1CN1CCC(Cc2ccccc2)CC1)N1CCCC1,-54.2
20,CCN(c1cccc(C)c1)S(=O)(=O)c1ccc2c(c1)CCCN2C(C)=O,3.37
21,CCOC(=O)N1CCN(C(c2cccc(OC)c2)c2sc3nc(C)nn3c2O)CC1 (stereo not shown),7.87
22,O=C(CSCSCC(=O)NCC1CCCO1)NCC1CCCO1 (stereo not shown),8.17

row,SMILES,"hERG current change (%, negative = inhibition) at 1uM [%]"
1,COc1cc(NC(=O)c2[nH]c(C)c(C(C)=O)c2C)cc(OC)c1OC,7.52
2,CC1(c2nnc(Cc3ccccc3)o2)CC(c2ccccc2)=NO1 (stereo not shown),-1.1
3,COc1ccccc1CC(NC(C)=O)C(=O)NC1CCN(C(=O)c2ccc(C)cc2)CC1 (stereo not shown),12.4
4,CNC(=O)c1cc(C(=O)c2ccccc2C(F)(F)F)c[nH]1,10
5,COCCNC(=O)Cn1ccc2cc(S(=O)(=O)N3CCCCC3)ccc21,11.8
6,COc1ccc(-c2cc(C(F)(F)F)nc(S(C)(=O)=O)n2)cc1OC,15.8
7,O=C(NCc1ccco1)C(=O)NCc1ccccc1Cl,9.73
8,CC(=O)N1N=C(N)SC12CCCC2,15.7
9,CC1CN(Cc2cc(=O)n3ccsc3n2)CC(C)O1 (stereo not shown),6.79
10,Cn1c(=O)n(C)c2cc(NC(=O)COc3ccccc3)ccc21,18.2
11,COc1ccc(-c2cc(C(=O)N(C)Cc3ccccc3F)c3ccccc3n2)cc1OC,3.88
12,CCC(CC)C(=O)Nc1cc(C(=O)OC)cc(C(=O)OC)c1,1.94
13,CCCCCCc1nc(C(N)=O)c2[nH]c(=O)n(-c3ccc(OC)cc3OC)c2n1,12
14,O=C(CCC(=O)Nc1cc(C(F)(F)F)ccc1Cl)N/N=C\c1cc([N+](=O)[O-])ccc1O,9.8
15,CN(CC(=O)Nc1ccccc1Br)C(=O)COc1cccc2c1OC(C)(C)C2,10.9
16,Nc1c(C(=O)OCC(=O)Nc2ccc(OC(F)F)cc2)[nH]c(=O)[nH]c1=O,-0.461
17,CC1CN(C(=O)COc2coc(CN3CCc4ccccc4C3)cc2=O)CC(C)O1 (stereo not shown),10.5
18,COc1ccccc1N1CCN(S(=O)(=O)CCNC(=O)c2cc(OC)c(OC)c(OC)c2)CC1,9.08
19,Cc1cc(C)c2c(-n3cccc3)c(C(=O)O)sc2n1,9.5
20,Cc1nn(-c2ccccc2)c(C)c1/C=N/NC(=O)CSc1nnc(SCc2ccccc2Cl)s1,-15
21,COc1cc(CNn2c(C)n[nH]c2=S)cc(Cl)c1OCc1ccc(F)cc1,15.9
22,O=C(O)CC(CC(=O)Nc1ccc(C(=O)O)cc1)c1ccccc1 (stereo not shown),14.4
